# In PubChem BioAssay AID463173 (ICCB-Longwood Screening Facility, Harvard Medical School, 2010):
# Among all 52,000 compounds or so, about 4,300 (8.3%) were called active. Cut-off read from the data, not from the text of the source: active = survival mostly below about 52% (no sharp cut-off); inactive = mostly above about 56%. This is one part of the list.
# Tested on: DeltatarO mutant
# Test: growth inhibition of S. aureus wild type versus tarO mutant, primary screen, teichoic acid synthesis inhibitors, RN4220, OD600 (AID 463173)
# Conditions: OD600, 18 h, active compounds read low, screened at 18.75 µg/mL (by protocol)
row,SMILES,survival
1,O=C(CCc1ccccc1)NCCc1csc(-c2cccc(F)c2)n1,inactive: 81%
2,Cc1ccc(C)c(CN2C(=O)c3ccccc3Sc3ccc(C(=O)NCc4cccs4)cc32)c1,inactive: 87%
3,CC1CCC(N2CC(=O)N(C3CCCC3)C(c3ccc(Cl)cc3)C2=O)CC1 (stereo not given),inactive: 79%
4,CC(=O)c1cccc(NC(=O)c2noc3c2CSc2ccccc2-3)c1,inactive: 66%
5,COc1ccccc1-c1cc(NC(=O)COc2ccccc2Cl)n(-c2ccccc2)n1,inactive: 77%
6,Cc1ccc(-c2[nH]c3ccccc3c2SCCNC(=O)c2ccc(S(=O)(=O)N3CCOCC3)cc2)cc1,inactive: 67%
7,Cc1ccccc1OCCSc1nc(C)c(Cc2ccccc2)c(=O)[nH]1,inactive: 97%
8,O=C(C1CCCN(S(=O)(=O)c2ccccc2)C1)N1CCCc2ccccc21 (stereo not given),inactive: 91%
9,COc1ccc(-c2nn(C)c3sc(C(=O)N4CCN(c5ccccc5F)CC4)cc23)cc1OC,inactive: 95%
10,CC(=O)Nc1cc(C)ccc1C,inactive: 88%
11,COc1cccc(CNC(=O)C(C)n2ccc3cc(S(=O)(=O)N4CCCCCC4)ccc32)c1 (stereo not given),inactive: 102%
12,CCn1c2c(c(=O)n3ncc(C(=O)Nc4cccc(Cl)c4C)c13)CN(Cc1ccc(OC)cc1)CC2,inactive: 68%
13,COc1ccc(CNC(=O)C2CCN(c3nc4ccc(C)cc4[nH]3)CC2)cc1,inactive: 94%
14,CCOC(=O)c1c(C)[nH]c(C)c1S(=O)(=O)N1CCC(C(=O)NCc2ccc(C)cc2)CC1,inactive: 72%
15,CCN1C(=O)CC(n2c(C)nc3ccccc32)C1=O (stereo not given),inactive: 96%
16,O=c1c2c([nH]n1-c1ccccc1)CCCC2,inactive: 101%
17,C=C(C)CSc1nc2sc3c(c2c(=O)n1CCCC)CCCC3,active: -3%
18,Cc1cc(C)cc(NC(=O)CSc2nncn3c2cc2occc23)c1,active: 46%
19,O=C(O)Cn1ccnc1,inactive: 86%
20,COc1ccc(S(=O)(=O)c2cn(Cc3ccccc3)c3cc(N4CCCC4)c(F)cc3c2=O)cc1,inactive: 91%
21,CCCOc1cccc(C(=O)Nc2ccc(-c3nc4ccccc4s3)c(Cl)c2)c1,inactive: 58%
22,COc1ccc(CCNC(=O)CCCCn2c(=O)c3ccccc3n(CC(=O)Nc3ccccc3C)c2=O)cc1OC,inactive: 111%
23,Cc1ccc(S(=O)(=O)N(C#N)c2nc(C)cc(C)n2)cc1,inactive: 71%

row,SMILES,survival
1,O=C(CCNS(=O)(=O)c1ccc2c(c1)CCN2C(=O)C1CC1)N1CCN(c2ccc(F)cc2)CC1,inactive: 117%
2,CCc1ccccc1NC(=O)Cn1c(=O)nc(-c2ccccc2)c2ccccc21,inactive: 90%
3,COc1ccc(CCNC(=O)CCn2c(=O)c3ccccc3n(Cc3ccc(Cl)cc3)c2=O)cc1OC,inactive: 119%
4,COC(=O)c1ccc(-n2c(/C=C\c3cccc(Br)c3)nc3ccccc3c2=O)cc1,inactive: 70%
5,CCc1nc2ccccc2n1CCCCOc1ccccc1C,active: 0%
6,Cc1ccc(S(=O)(=O)C(CNC(=O)C(=O)NCCc2ccccc2)c2ccco2)cc1 (stereo not given),inactive: 87%
7,CC1=CS(=O)(=O)CC1Sc1ncn[nH]1 (stereo not given),inactive: 104%
8,CCCn1c(SCC(O)c2cccc(OC)c2)nc2ccccc21 (stereo not given),inactive: 84%
9,O=C(Nc1ccc(N2CCN(CCOc3ccc(Cl)cc3)CC2)c(C(=O)O)c1)c1ccc(F)cc1,active: 20%
10,COC(=O)c1cn(CC(=O)Nc2ccc(F)cc2)c2ccccc12,inactive: 85%
11,O=C(Nc1cccc(Cl)c1)C1=CC(=O)N2CCN=C2S1,inactive: 108%
12,COc1ccc(CNC(=O)c2nnn(CC(=O)Nc3cc(C)cc(C)c3)c2N)cc1,inactive: 76%
13,COc1ccccc1C(=O)NC1(C(F)(F)F)C(=O)Nc2c1c(=O)[nH]c(=O)n2CCc1ccccc1 (stereo not given),inactive: 77%
14,Cc1cc(C(=O)NCc2ccccc2C)c2c(C)nn(-c3cccc(F)c3)c2n1,inactive: 95%
15,CCOC(=O)C1=C(CN2CCN(CC)CC2)NC(=O)NC1c1ccc(Cl)cc1 (stereo not given),inactive: 97%
16,CCCn1c(=O)sc2cc(NC(=O)c3ccccc3OCC)ccc21,inactive: 93%
17,Cc1cccc(-c2nc(SCC(=O)Nc3cccc(C(F)(F)F)c3)n3[nH]c(=O)cc3n2)c1,active: 0%
18,CCOc1ccc(CNC(=O)C2CCCN(S(=O)(=O)c3ccc4c(c3)CCCC(=O)N4)C2)cc1 (stereo not given),inactive: 75%
19,CC(C)CCNC(=O)CSc1c2c(nc3ccc(Cl)cc13)CCCC2,active: 51%
20,Cc1nn(Cc2ccc(Cl)cc2)c(C)c1NC(=O)c1noc2c1CCc1ccccc1-2,active: 31%
21,CCCCn1cc(S(=O)(=O)c2ccc(OC)cc2)c(=O)c2cc(F)c(F)cc21,inactive: 96%
22,CC(C)(C)NC(=O)C1N(C2CC2)C(=O)C2C(C(=O)NCc3ccccc3)C3C=CC21O3 (stereo not given),inactive: 64%
23,Clc1cccc(-c2csc(-c3nc(-c4ccc(Br)s4)cs3)n2)c1,inactive: 86%

row,SMILES,survival
1,CCN(CC)C(=O)c1sc2c(c1C)c(=O)n(-c1ccccc1)c(=O)n2Cc1cc(=O)n2ccccc2n1,active: 47%
2,CCc1ccc(NC(=O)CSc2nc(-c3ccccc3)c(C#N)c(=O)[nH]2)cc1,inactive: 78%
3,COC(=O)Cn1c(CN2CCN(c3ccc(OC)cc3)CC2)nc2c1c(=O)[nH]c(=O)n2C,inactive: 88%
4,CCOC(=O)c1c(S(=O)(=O)NCC(=O)Nc2cccc(CC)c2)c(C)n(C)c1C,inactive: 84%
5,CCN(CC)C(=O)CN1CCN(c2cccc(Cl)c2)CC1,inactive: 101%
6,O=C(CC1N=C2c3ccccc3N=C(SCc3ccc(F)cc3)N2C1=O)NCc1cccs1 (stereo not given),inactive: 113%
7,COc1ccc2c(c1)CCc1c(C(=O)Nc3ccccc3C(F)(F)F)noc1-2,inactive: 143%
8,CC(=O)Nc1ccccc1-c1nc2cc(C#N)c(C#N)cc2[nH]c1=O,inactive: 88%
9,CCn1c(SCC(=O)c2ccc([N+](=O)[O-])cc2)nnc1-c1ccc(Cl)cc1,inactive: 70%
10,CCOC(=O)c1scc(-c2ccc(C)cc2)c1S(=O)(=O)Nc1cc(Cl)ccc1OC,active: -5%
11,CC(C)Oc1ccc(C2CC(=O)N(C)C2=O)cc1 (stereo not given),inactive: 82%
12,CCc1ccc(NC(=O)Cn2ncc3c4ccccc4n(C)c3c2=O)cc1,inactive: 92%
13,COc1cccc(CNC(=O)Cn2cc3c(n2)-c2c(oc(C(=O)N4CCCC4)c2C)CC3)c1,inactive: 76%
14,CC(=O)OC(COc1ccccc1)Cn1cnc2cc(C)c(C)cc21 (stereo not given),inactive: 140%
15,COc1ccc(NC(=O)CC2C(=O)N(c3ccc(C)cc3)C(=O)N2C2CCCCC2)cc1 (stereo not given),inactive: 64%
16,O=C(NC1CCCCC1)NC1CCN(S(=O)(=O)c2cccc(Cl)c2)CC1,inactive: 81%
17,O=C(CCSCc1ccccc1Cl)N1CCN(c2cccc(Cl)c2)CC1,inactive: 86%
18,C/C(=N/O)c1ccc2c(c1)OCCO2,inactive: 95%
19,CCCn1c(CCC(=O)Nc2cc(Cl)c(OC)cc2OC)nc2cccnc21,inactive: 87%
20,Cc1ccc(C)c(NC(=O)CSc2ncc3c(n2)-c2ccc(Cl)cc2N(C)S3(=O)=O)c1,inactive: 74%
21,CCn1nc(-c2ccccc2)c(-c2ccccc2)c(C(=O)Nc2nc(C)c(C(=O)N(C)C)s2)c1=O,inactive: 75%
22,CCc1nc2cccnc2n1-c1ccc(CC(=O)Nc2ccc(C)cc2)cc1,inactive: 78%
23,Cn1nccc1C(=O)Nc1cccnc1,inactive: 93%

row,SMILES,survival
1,O=C(Cn1c(=O)n(-c2ccccc2Cl)c(=O)c2sc3ccccc3c21)N1CCCC1,inactive: 80%
2,CCOc1ccc(CNC(=O)c2cnc3sc(N(CC)CC)nn3c2=O)cc1OC,inactive: 77%
3,CCOC(=O)c1c(C)[nH]c(CCC(=O)NCCCN2CCN(c3cc(C)ccc3C)CC2)c1C,inactive: 94%
4,COc1ccccc1CNC(=O)CN1C(=O)CSc2ccc(S(=O)(=O)N(C)C)cc21,inactive: 95%
5,O=C(CCNS(=O)(=O)c1ccc2c(c1)CCN2C(=O)C1CC1)N1CCN(c2ccccc2F)CC1,inactive: 89%
6,CCOc1ccc(S(=O)(=O)N2CCN(c3ccc(Cl)c(Cl)c3)CC2)c2ccccc12,inactive: 168%
7,CN(C)c1ccc(C(CNS(=O)(=O)c2ccc(Br)cc2)N2CCCC2)cc1 (stereo not given),inactive: 72%
8,COc1cc(OC)cc(C(=O)Nc2ncn[nH]2)c1,inactive: 80%
9,CCN=C1SC(CC(=O)Nc2ccccc2)C(=O)N1CC (stereo not given),inactive: 56%
10,COc1ccc(Cl)cc1NC(=O)CSc1ccc(-c2sc(C)nc2C)nn1,inactive: 105%
11,CC(C)Cc1nn2c(=O)cc(COC(=O)c3ccc4c(c3)OCO4)nc2s1,inactive: 73%
12,O=C(CNCCCN1CCOCC1)Nc1ccc(OC(F)(F)F)cc1,inactive: 99%
13,CCOC(=O)c1cc2c(=O)n3ccccc3nc2n(CCCOC)c1=NC(=O)C(C)(C)Oc1ccc(Cl)cc1,inactive: 53%
14,CC(C)N(Cc1ccccc1)C(=O)CN1C(=O)COc2ccc(S(=O)(=O)NC3CCCC3)cc21,inactive: 93%
15,Cc1cc(C)cc(NC(=O)CCc2nnc3n(CC(C)C)c(=O)c4ccccc4n23)c1,inactive: 89%
16,CC(C)NC(=O)C1CCCCC1C(=O)O (stereo not given),inactive: 75%
17,CCN(C(=O)CSc1nc2ccccc2n1CC(=O)Nc1ccccc1C)c1ccccc1,active: -5%
18,COc1cc(CNc2ccc3[nH]c(=O)[nH]c3c2)ccc1OCc1ccccc1F,inactive: 85%
19,COc1ccc(-n2ccn(Cc3ccccc3Cl)c(=O)c2=O)cc1OC,inactive: 61%
20,COc1ccccc1CNC(=O)Cc1csc2nc(-c3ccc(Cl)cc3)cn12,inactive: 83%
21,CCOc1cc(CNC(=O)c2ccc(C)c(NC(=O)c3nsc4ccccc34)c2)ccc1OC,inactive: 72%
